Test results taken from the supplement of paper PMC3334620.
The full ranking holds about 33,000 sequences; the median of “E-score (-0.5 to 0.5)” is about -0.021, and the highest 2% start at about 0.32. The list shows a part of the results.

Target: T1, Zap1 (UniProt P47043)
T1 sequence: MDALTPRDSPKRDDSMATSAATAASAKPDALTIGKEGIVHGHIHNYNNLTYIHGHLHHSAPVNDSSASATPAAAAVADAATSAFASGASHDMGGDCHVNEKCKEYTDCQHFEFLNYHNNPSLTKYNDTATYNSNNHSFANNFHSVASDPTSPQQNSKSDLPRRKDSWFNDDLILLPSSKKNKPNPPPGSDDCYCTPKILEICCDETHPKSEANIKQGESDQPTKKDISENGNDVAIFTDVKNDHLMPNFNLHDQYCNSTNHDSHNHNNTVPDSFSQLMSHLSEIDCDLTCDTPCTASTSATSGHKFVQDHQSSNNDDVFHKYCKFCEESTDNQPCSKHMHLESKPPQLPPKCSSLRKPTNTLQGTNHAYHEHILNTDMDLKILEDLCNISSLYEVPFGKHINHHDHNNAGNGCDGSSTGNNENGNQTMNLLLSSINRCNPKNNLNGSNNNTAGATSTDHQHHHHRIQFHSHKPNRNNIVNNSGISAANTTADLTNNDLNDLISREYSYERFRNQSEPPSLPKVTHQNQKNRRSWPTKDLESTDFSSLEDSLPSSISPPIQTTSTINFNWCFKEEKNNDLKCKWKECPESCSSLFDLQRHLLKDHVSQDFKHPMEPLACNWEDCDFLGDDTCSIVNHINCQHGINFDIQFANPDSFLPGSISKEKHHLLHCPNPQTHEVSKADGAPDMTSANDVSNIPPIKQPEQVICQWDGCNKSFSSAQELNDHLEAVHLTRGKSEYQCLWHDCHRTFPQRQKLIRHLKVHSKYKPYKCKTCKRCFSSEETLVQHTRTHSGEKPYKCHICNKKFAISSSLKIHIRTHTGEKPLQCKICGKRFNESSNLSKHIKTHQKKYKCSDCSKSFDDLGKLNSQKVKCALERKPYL
Experiment: PBM E-score (8-mer binding enrichment) (E-score (-0.5 to 0.5)); higher = stronger / more preferred TF binding; most listed sequences are background and not binding sites
Details: protein concentration: 200 nM; construct: GST-full length
How it was run: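 Full-length yeast transcription factors or their DNA-binding domains, GST-tagged and expressed with PURExpress, were applied at about 100-200 nM to universal all-10-mer Agilent arrays. These arrays had been made double-stranded by primer extension on fresh or once-stripped slides. Detection used fluorescent anti-GST, normalisation used masliner, and E-scores for ungapped eight-base words pooled with reverse complements came from the Universal PBM Analysis Suite.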

Sequence	PBM E-score
GTTGCCTA	-0.0525
CTGCCGCC	-0.234
AAAGTTAA	0.202
AACGGCAG	-0.0615
AAGTAAGT	-0.12
ACTTATAC	0.0964
ATTGTGTC	0.0821
CAATTCTC	-0.085
GATCTCGC	-0.0165
ATTTATTG	-0.0622
ATACCGCG	0.107
ATAGAAAG	-0.058
GTTGGACA	-0.0571
GAGCGCTC	-0.187
TACTATGA	0.0715
AGTCGGAC	-0.207
CCCCGCCC	0.258
CCGATTTC	0.00395
AACTTCTC	-0.00977
ATACCAAA	0.153
ATGCACTC	-0.292
ACAGATAG	-0.085
GCTGGGTA	-0.00384
ACTTATGG	0.0134
CCATTGAG	0.0869

Sequence	PBM E-score
AACAGTAT	0.0128
GGAGTTTA	-0.0721
AACGTTCC	-0.14
CTTGAGAA	0.0299
ATTTCGTA	-0.0658
GCTAGTGA	0.125
CCGGTTAG	0.159
ACCCTCAT	0.267
AGTACCAC	0.208
CGGCGCAG	-0.253
TAACAGGA	0.0198
AACGAGTG	-0.116
ATACTCCG	0.13
CACGCATC	-0.0974
GCCGATAC	-0.262
CGAAATGC	0.039
ACCCCCCT	-0.283
CAACAATA	0.159
AGGATTCA	-0.164
TACTGTCA	0.0135
CTCCAAGA	-0.135
CTGGAGTC	-0.293
CTACCGAA	-0.0174
CGCCTAAC	0.0159
GGCTAGTA	-0.138

Sequence	PBM E-score
AGTTAGGA	0.0469
ACTTCCCG	-0.209
ACCCTCGT	0.358
CATGGTAA	0.176
AATTGCGC	0.0813
ACGTATAC	0.00898
CTTTCCAC	-0.158
AGGAATGA	-0.0672
GTGCGACA	-0.0731
AGTTAGTC	-0.0109
ACGCAAGT	-0.0294
CGTGAGAA	0.103
CCACTCGA	0.0711
AACATTGA	-0.0517
CGTATCGA	-0.133
CGTGGGCA	-0.398
CATGGCAC	-0.0804
CGCGGGAC	-0.109
CACTTCCG	-0.0229
CCGGTGAC	0.177
ACTAGCAC	-0.0163
AGTTGTAA	0.0607
ATTTTATA	0.218
CTCCGATA	-0.14
GCTTCTAC	-0.154

Sequence	PBM E-score
AGCAATGG	-0.133
AGGACAGA	-0.116
GACCAGTC	-0.118
ATGGTGAG	-0.0848
CTTGAATA	0.0966
CCTCCCAA	-0.053
GAACTAGA	-0.059
ACGCTGCT	-0.138
CAAATTGC	-0.0528
GGAGGAGA	-0.31
CGTCTCTA	-0.19
GCAAATAA	0.121
ATATGCTA	-0.0941
CTGGCGAC	-0.15
AACCGTCA	0.183
AACCTTCG	0.305
GTACTCAC	0.23
TTGTCAAA	0.147
TAGGTAGA	0.117
AAGTAAAG	-0.218
ATTCCCAG	-0.0801
CCTTCAAA	0.215
CAGGCTGC	-0.2
GTATTAAA	0.115
CCTAACAA	0.221

Sequence	PBM E-score
CATCGCTC	-0.173
TACTTTGA	0.121
TAACGGTA	0.257
GGGTCCGA	0.0103
CCAGGAGA	-0.0614
CATGGAGA	-0.0466
GGATCGCA	-0.0873
CCCCTAAA	0.0485
CCTGATAA	0.0464
ACAGTGAT	-0.0505
CCGATAAC	0.229
ATTAGGAG	-0.04
CAGACATC	-0.0635
ATGGAAGC	-0.263
AATGCGGG	0.172
GGCGGTAA	0.125
GTTTTGAA	0.152
CCAAGTGA	0.124
ATCGCACC	-0.0201
AAGGTTCC	0.317
GGCGTACC	0.0458
TTCGCGAA	0.121
CATAGATA	-0.195
CGGAAAGC	-0.117
AAACTTAG	0.0118

Sequence	PBM E-score
ATCTGCCC	-0.337
TCGATACA	0.166
ATATCAAG	0.228
ATAAAGCA	-0.0384
CATACAGG	0.0416
CCCCTGAG	-0.0275
AGATGTAA	-0.0125
CTATCATC	0.00267
ACTGAGGG	-0.0161
CGGTCCAA	-0.0431
ATAGGAAG	-0.133
ATGCCAGG	-0.0827
AGGAACTA	-0.0309
CGTGATCA	0.0536
AATCGTTA	-0.106
ATATGCCC	-0.187
TCCACGGA	0.0527
GGCGCTGA	-0.24
ATCATGGC	-0.0482
ACATGTCG	-0.15
GGAGCATA	-0.0907
GTTTTCAA	0.285
CACCGTTC	0.0424
CCGCCACG	-0.0225
ACTTGGTC	0.173

Sequence	PBM E-score
ACTATGGG	0.052
AGTCGTCC	-0.262
ACTGCCAC	-0.0279
AAGCATAC	-0.0215
GTCAATGA	-0.0525
ACTGAGCT	-0.277
CTGAGATA	0.0134
AAAGACTT	-0.199
CAAGGCGC	-0.141
AAAATGCG	-0.0733
TAAAGATA	0.0715
GGGTGCAA	0.0943
GGGAAAGA	-0.243
CTTCACTA	0.00388
ACCGAGGA	-0.0406
ACGCTAGA	-0.119
TAGTGCCA	-0.18
ACAATCTG	-0.0469
CCATACGA	-0.0949
ATCAAGTA	-0.0433
TAGTAAAA	0.157
AGTATGTA	-0.0522
CGACTGTA	-0.09
ACACCGGC	-0.0775
AAGCAGTC	-0.132

Sequence	PBM E-score
TATCCTAA	0.0366
CCAGCTCC	-0.215
GAATTGCA	-0.0559
ATACCTAC	0.216
ACTCGAAC	-0.0744
GATGACCC	0.403
AGACTGCG	-0.225
TATTCTGA	0.022
CTATGGAG	-0.139
AAGTTTAC	0.178
AGTACGGC	-0.00578
GCTTGAGA	-0.139
CTAGACGA	-0.171
ATAGTTTA	0.0216
ACACCGGG	0.0916
AGACTGGG	-0.141
GATAACAA	0.171
GAAGACTA	-0.0505
GATGGCCC	-0.0404
GCTACTTA	-0.226
ACTAACGG	-0.158
ATGGCGTA	-0.0173
CATGGTGA	0.0149
GCGTCCCC	-0.249
CGCTCGAG	-0.0913

Sequence	PBM E-score
AGGGTGGC	0.293
GACTGAGA	-0.0802
CTACTCCA	-0.0348
ACTCGCCT	-0.0695
ACCGACCT	0.0803
CCCTAGTA	-0.00016
CTCCACGC	-0.241
GACTCTGC	-0.129
GGAATGTA	-0.0291
CTACCTAA	0.106
AGCTGGAC	-0.202
AAAACTAC	0.115
AACAGGAT	-0.0521
AAAAGGAA	0.119
CTTTGGCA	-0.316
GGGCCAAC	-0.194
CCAATGTC	0.0198
ACCGGACC	-0.0182
GGTCAAAA	0.25
CCCAGGGC	-0.18
CATGGCTC	-0.133
CATGTGAA	-0.0799
ACTCGTGC	-0.164
AGTCGGCG	-0.141
GAAGTTTA	0.00485

Sequence	PBM E-score
GAGGGATC	-0.141
ACCTTAGT	0.27
CCCAACGA	-0.0315
GACGACTC	-0.289
TAAGCAGA	-0.127
CCAACGCA	0.182
AGGACTCA	-0.163
AACCTGAC	0.195
AGACCTCA	0.0826
AATGTCCT	-0.161
ATGGCTCA	-0.121
ACCTGCGG	0.172
CGCATGCC	-0.0453
CACGATCA	0.162
AGGTACTC	0.261
AGCTGAAA	-0.0338
GTAGGCCA	0.064
AGATGCTC	-0.0951
CAGTGGCG	-0.132
ACGTGTTG	-0.208
CGTCCCAG	-0.1
CGACATAA	-0.0524
AGCTATAC	-0.00572
ACCGATGG	0.143
GAAGTTGC	-0.122

Sequence	PBM E-score
CTCGCAGC	-0.0472
GTTACTTA	0.19
AGTTTTAG	0.084
GCGCCCGA	-0.181
AAGACGCA	-0.128
TAGCGACA	0.0403
CACCAGAG	-0.189
AAATAAGG	0.0515
AGCTCCAC	-0.261
AGGAAGAC	-0.258
ACACGATG	-0.225
GGTATAAC	0.265
ACGCCTCA	-0.12
ATCGGCGC	-0.15
GCATTAAC	-0.00696
TCGGGGCA	-0.247
TCATCGGA	0.0515
GTGCTTAA	0.133
CCAGAAGG	0.198
ACATTTTC	0.0824
GACCTCCC	-0.141
ATCGTCAC	0.0385
CGCTAACC	0.312
TAGGATAA	0.0934
GGACATGA	-0.0621

Sequence	PBM E-score
ATCCTAAA	-0.00991
ACAACTAA	0.13
GCAAGTCA	0.0207
ACTGACAA	0.0776
ACCTAATA	0.18
GTGACATA	0.0357
CTCCAGAG	-0.135
CCTCCTAG	-0.189
AGGACTGG	-0.0435
ACCAAGGG	0.178
AATTCAAA	0.126
GGGTGTAA	0.0228
AGGGTGCC	0.206
GGTCGCGA	0.32
ATAGTCAA	0.0862
CACAAAGG	0.26
AGCAGACA	-0.173
ACGGACAT	0.078
CCCAGTCC	-0.0737
CCACAGCC	-0.17
CCCACTGA	-0.0683
CACGGAAA	-0.00494
ATCACAAT	-0.0122
GAGTCCGC	-0.0903
TAGATGGA	-0.292

Sequence	PBM E-score
GGACGCAC	-0.0516
GTAGAATA	0.0509
TCCACGCA	0.0249
ACGTGACG	-0.122
CTAGCAAC	-0.0149
CAGCTCGG	-0.188
ACACGAAT	0.0376
GTATCGGA	-0.0886
AAGCCAGA	-0.16
AACCTAAT	0.204
ATTCCGCG	0.0798
ACTACCGA	-0.166
CTGCCTGA	-0.0301
AATATGAA	0.0666
ATCGTTGA	0.0303
AGCATTAG	-0.0181
CACCTTAG	0.245
ATCGTCAA	-0.0259
CTCTCTGC	-0.139
ACCCACGT	0.0775
AAACGGTA	0.228
ACATTTAT	-0.0887
GCTCTTTA	-0.113
ACGGACTC	-0.272
GCAACCCC	0.342

Sequence	PBM E-score
ACTGAGAA	-0.0474
ATGACGAG	-0.244
ATAAATGG	0.107
CGGGATTA	-0.0545
GAATAGTA	0.159
CGTATCCA	-0.133
AGTAAATC	0.106
GGATAAGA	-0.0507
AACACGCC	-0.175
AAGATTGA	-0.0233
GAAATGTC	-0.295
CACTCCCG	-0.298
CGGACAAG	-0.141
CTAAGAAG	0.137
CAAACCCA	0.2
GAGCGACC	-0.0743
ACATGGTA	0.111
AATTATCC	0.0783
ATCAAAGG	0.0999
